# Measured values published in publication PMC4336329 (PLoS ONE, 2015).
# Screen size: about 310,000 compounds; about 2,200 (0.71%) showed an effect of 50% or more. The effect is printed as a negative number. The list shows a part of the results.
# Target: human ether-à-go-go-related gene (hERG) potassium channel (human, UniProt Q12809)
# Test: primary screen, population patch clamp on CHO cells stably expressing hERG
# human ether-à-go-go-related gene (hERG) potassium channel, sequence (Q12809 whole entry, looked up): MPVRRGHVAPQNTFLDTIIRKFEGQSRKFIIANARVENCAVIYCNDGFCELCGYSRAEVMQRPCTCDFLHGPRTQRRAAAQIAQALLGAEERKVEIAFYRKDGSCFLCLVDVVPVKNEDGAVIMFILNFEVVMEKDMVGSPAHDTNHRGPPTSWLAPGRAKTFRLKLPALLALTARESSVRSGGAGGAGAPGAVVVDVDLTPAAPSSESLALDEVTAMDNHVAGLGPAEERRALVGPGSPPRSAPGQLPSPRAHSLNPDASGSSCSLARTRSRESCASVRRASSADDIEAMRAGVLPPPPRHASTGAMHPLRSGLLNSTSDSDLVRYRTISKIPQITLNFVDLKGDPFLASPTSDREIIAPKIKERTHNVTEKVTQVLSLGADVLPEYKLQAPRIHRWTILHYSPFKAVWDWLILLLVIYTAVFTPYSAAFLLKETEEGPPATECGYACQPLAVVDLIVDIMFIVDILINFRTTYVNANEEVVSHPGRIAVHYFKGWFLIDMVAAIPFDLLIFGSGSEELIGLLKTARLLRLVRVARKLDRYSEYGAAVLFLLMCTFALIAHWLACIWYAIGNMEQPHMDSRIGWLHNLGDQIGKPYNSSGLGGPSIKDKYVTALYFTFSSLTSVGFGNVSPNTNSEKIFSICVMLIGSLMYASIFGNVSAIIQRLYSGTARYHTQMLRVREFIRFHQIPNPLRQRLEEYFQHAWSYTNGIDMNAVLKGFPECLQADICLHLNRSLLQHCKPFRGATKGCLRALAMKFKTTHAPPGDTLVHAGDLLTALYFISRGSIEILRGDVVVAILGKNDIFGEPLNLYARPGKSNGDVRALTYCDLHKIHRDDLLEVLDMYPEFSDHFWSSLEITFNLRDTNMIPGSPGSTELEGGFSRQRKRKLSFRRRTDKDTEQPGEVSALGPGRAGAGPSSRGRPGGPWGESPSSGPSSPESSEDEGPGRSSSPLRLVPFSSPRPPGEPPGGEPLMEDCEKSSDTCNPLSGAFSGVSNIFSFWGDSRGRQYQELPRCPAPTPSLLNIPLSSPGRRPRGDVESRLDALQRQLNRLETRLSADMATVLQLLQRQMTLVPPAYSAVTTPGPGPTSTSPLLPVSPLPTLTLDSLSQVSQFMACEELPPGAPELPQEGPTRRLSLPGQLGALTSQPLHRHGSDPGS
row,SMILES,"hERG current change (%, negative = inhibition) at 1uM"
1,COc1ccc(-c2csc(N3C(=O)C4C5c6ccccc6C(c6ccccc65)C4C3=O)n2)cc1 (centres unmarked),11.9%
2,N#Cc1ccccc1OCc1nnc(-c2ccccc2Br)o1,15.8%
3,CCSc1ccccc1C(=O)N1CCCC1,-6.75%
4,CN(C)C(CNC(=O)C1CCN(S(=O)(=O)c2ccc(Cl)cc2)CC1)c1ccccc1 (centres unmarked),3.7%
5,Cc1c(OCC(=O)NCC(O)c2ccccc2)ccc2c3c(c(=O)oc12)CCC3 (centres unmarked),8.98%
6,Cc1ccnc(Sc2nc3c(c(=O)[nH]c(=O)n3C)n2CCCc2ccccc2)n1,12.5%
7,O=c1[nH]c2ccc(S(=O)(=O)Nc3ccc(Cl)cc3)cc2[nH]1,10.4%
8,O=C(O)C1Cn2c(nc3c(c2=O)C2(CCCC2)Cc2ccccc2-3)S1 (centres unmarked),9.78%
9,Nn1c(COc2cccc(Br)c2)nnc1SCC(=O)NCC1CCCO1 (centres unmarked),8.55%
10,CN1CCN(c2ccc(C(CC(N)=O)NC(=O)c3ccccc3)cc2[N+](=O)[O-])CC1 (centres unmarked),13%
11,COc1ccc(/C=C2\C(=O)NC(=S)N2C(=O)c2ccc(C)cc2)cc1,11%
12,CC(SC1=NCCN1S(=O)(=O)c1ccccc1)c1ccccc1 (centres unmarked),4.21%
13,Cc1cnc(C(=O)OCC(=O)Nc2cc(-c3cc(C)c(C)cc3C)nn2-c2ccccc2)cn1,10.6%
14,CC(=O)NCCn1c(SCC(=O)c2ccccc2)nc2ccccc2c1=O,-6%
15,CCCCn1c(N)c(N(CCOC)C(=O)CSCc2ccc(Cl)c(Cl)c2)c(=O)[nH]c1=O,13%
16,CC1(C)CC(NC(=O)c2cc(Cl)ccc2Cl)CC(C)(C)N1,10%
17,CC(C)C(NC(=O)c1ccccc1F)C(=O)NCc1ccc(F)cc1 (centres unmarked),6.68%
18,O=C(NN=C1C2CC3CC1CC(Cl)(C3)C2)c1ccccn1,9.36%
19,COc1ccc(OCC(=O)NC(=O)c2ccccc2)c([N+](=O)[O-])c1,-6.13%
20,CC1CCCCC1N1CCN(C(=O)c2cccc(F)c2)CC1.O=C(O)C(=O)O (centres unmarked),-3.65%
21,Cc1c(NC(=O)COC(=O)c2ccc(O)cc2)c(=O)n(-c2ccccc2)n1C,16.4%
22,Cc1[nH]n(C(N)=S)c(=O)c1C(c1ccccc1)C(C#N)C#N (centres unmarked),17.3%
23,COc1cc(C(=O)N2CCCc3ccccc32)c([N+](=O)[O-])cc1OC,13.2%

row,SMILES,"hERG current change (%, negative = inhibition) at 1uM"
1,O=c1[nH]c(=O)n(C2CCCCC2)c(O)c1C=NCCCn1ccnc1,11.6%
2,CC(C)c1ccc(-c2c(NCCc3ccccc3)c(=O)c2=O)cc1,18.3%
3,Cc1oc2cc3oc(=O)cc(C)c3cc2c1C,10%
4,COc1ccc2c(=O)c(-c3nc(C)cs3)coc2c1,10.4%
5,O=C(O)c1ccccc1-c1ccccc1C(=O)NCCCO,17.1%
6,CCO[C@@H]1OC(C(=O)NCc2ccccc2)=C[C@H](c2ccc(Br)cc2)[C@H]1CCCO,13.8%
7,Cc1cccc(C(=O)OCC(=O)NCC2CCCO2)c1O (centres unmarked),8.36%
8,COc1cccc(OC)c1C(=O)N1CCN(S(=O)(=O)c2ccc(C)cc2)CC1,8.29%
9,O=C1CC[C@@H](CN(Cc2ccccc2)Cc2cn[nH]c2-c2cc3ccccc3o2)N1,13.3%
10,COC(=O)C1=C(C)NC(=O)NC1c1cn(-c2ccccc2)nc1-c1cccs1 (centres unmarked),8.39%
11,COc1ccc(CCn2c(-c3ccncc3)n[nH]c2=S)cc1OC,11.5%
12,NC(=O)NCC1CC1,8.76%
13,Nc1cc(N)nc(SCC(=O)Nc2cc(S(=O)(=O)N3CCOCC3)ccc2Cl)n1,13.2%
14,CCSc1nc(-c2ccccc2)nc2c1CCCC2,5.72%
15,CCc1c(O)nc(SCc2ccccc2)n(C(C)CC)c1=O (centres unmarked),13.2%
16,COC(=O)COc1ccc2c(c1)O/C(=C\c1cccc([N+](=O)[O-])c1)C2=O,1.61%
17,Cc1ccc(NC(=O)Nc2cccs2)c(Cl)c1,7.98%
18,COc1ccc(N2C(=O)N3[C@H](c4ccc(Cl)cc4)[C@@H]4C(=O)N(C5CCCCC5)C(=O)[C@@H]4[C@]3(Cc3ccc(Cl)cc3)C2=O)cc1,8.22%
19,COc1ccc(OC)c(-c2csc(N(C)C(=O)Cc3ccccc3)n2)c1,8.65%
20,COc1ccc(S(=O)(=O)NCc2ccccn2)cc1Br,15.2%
21,COc1ccc(CCNC(=O)c2ccc3c(c2)N(Cc2ccc(F)cc2)CCS3)cc1OC,9.51%
22,COc1ccc(-n2c(=O)cc(N3CC(C)OC(C)C3)[nH]c2=O)cc1 (centres unmarked),11.6%
23,CCOC(=O)c1cnc(SCC(=O)Nc2ccc3c(c2)OCCO3)nc1N,7.81%

row,SMILES,"hERG current change (%, negative = inhibition) at 1uM"
1,COC(=O)C(CCSC)NC(=O)c1cc2c(n(-c3ccccc3)c1=O)CC(C)(C)CC2=O (centres unmarked),2.43%
2,CN(Cc1cccc(F)c1)C(=O)c1cc(S(=O)(=O)N2CCOCC2)ccc1N1CCCC1,5.83%
3,Cc1ccnc(NC(=O)C2CCCN(S(=O)(=O)c3ccc4[nH]c(=O)ccc4c3)C2)c1 (centres unmarked),2%
4,COc1ccccc1CN(C)C(=O)c1ccccc1Sc1ccccc1C#N,-13.8%
5,N#Cc1ccccc1N1CCN(C(=O)c2ccc(NC(=O)c3ccc(Br)o3)cc2)CC1,12.5%
6,CCN(CCO)C(=O)c1ccc2nc(Cc3cccc(Cl)c3)oc2c1,7.69%
7,CNc1nc(C(=O)O)nc(N2CCOCC2)n1,10.3%
8,Cc1sc2ncn(CC(=O)N(C)C3CCCCC3)c(=O)c2c1C,0.429%
9,Cc1ccc(N(CC(=O)NCc2ccc(F)cc2)S(=O)(=O)c2c(C)nn(C)c2C)cc1,15.5%
10,Fc1ccccc1CSc1ncn[nH]1,-8.65%
11,CCCOCCOC(=O)C1=C(C)NC(=O)NC1c1cc(Cl)c(O)c(OC)c1 (centres unmarked),-4.45%
12,COc1cc(/C=N/NC(=O)CC#N)ccc1Oc1nc(Cl)ncc1F,15.3%
13,COc1cc(-c2nc3n(n2)C(c2ccncc2)C(C(N)=O)=C(C)N3)cc(OC)c1OC (centres unmarked),14.9%
14,Cc1cccc(NC(=S)NC2CCCC2)c1,5.73%
15,O=C(NC1CCCC1)c1cc(=O)[nH]c2ccccc12,17.7%
16,CSc1cccc(NC(=O)C2CCCN2S(=O)(=O)c2ccc3c(c2)CCC(=O)N3)c1 (centres unmarked),-10%
17,COc1cc(CNc2ccc3[nH]c(=O)[nH]c3c2)ccc1OCc1ccccc1F,10.7%
18,CCN1CCN(S(=O)(=O)c2c(C)cc(C)cc2C)CC1,9.22%
19,CCOC(=O)c1nnsc1NC(C)=O,12.7%
20,CC(C)n1c(=S)[nH]c2cc(C(F)(F)F)ccc21,14.8%
21,COc1ccc(OC)c(CN2CCN(C(=O)CN3C(=O)NC4(CCCC4)C3=O)CC2)c1,7.46%
22,COc1ccc(C(=O)NC(=S)N2CCN(c3ccc([N+](=O)[O-])cc3)CC2)cc1,-24.6%
23,CCCNC(=O)N1CCC(C(=O)c2ccc(F)cc2)CC1,12%

row,SMILES,"hERG current change (%, negative = inhibition) at 1uM"
1,Cc1cccc(C)c1NC(=O)CSc1nnc(Cc2ccccc2)o1,2.76%
2,O=C(Cc1ccccc1[N+](=O)[O-])N1CCOCC1,13.4%
3,CC(=O)c1c(C)nc(-c2ccc(Cl)cc2Cl)n1O,2.59%
4,O=S(=O)(Nc1ccc(N2CCOCC2)cc1)c1cccs1,4.22%
5,COc1ccc(CCNC(=O)CSCc2n[nH]c(=O)[nH]2)cc1OC,1.07%
6,COc1ccc(NC(=O)N2CCC(c3nc4ccccc4[nH]3)CC2)cc1,13%
7,CCc1ccc(N2CC(C(=O)N3CCN(c4ccccn4)CC3)CC2=O)cc1 (centres unmarked),3.65%
8,CC(=O)Nc1ccc2c(CSc3nnc(N)s3)cc(=O)oc2c1,10.7%
9,COc1ccccc1C(CNC(=O)c1cc(C)nc2ccccc12)N(C)C (centres unmarked),12.4%
10,Cc1cccnc1NCc1ccc(O)c2ncccc12,23.2%
11,CCCOc1ccc(/C(O)=C2/C(=O)C(=O)N(CCCn3ccnc3)C2c2cccnc2)cc1 (centres unmarked),12.6%
12,O=C1CCCCC/C1=N/Nc1ccc(OCc2ccccc2)cc1,17.1%
13,Cc1ccc2oc(=O)c(/C=C(\O)CC(C)C)nc2c1,11.4%
14,O=C(O)c1cc(Cl)c2c(c1)OCO2,11.1%
15,O=C(Cc1c(Cl)cccc1Cl)NC1CC1,10.2%
16,CCC(NC(C)C)C(O)c1ccc(O)c(O)c1.CS(=O)(=O)O (centres unmarked),12.8%
17,O=C(CSc1nc2c(c(C(F)(F)F)n1)CCc1ccccc1-2)NCc1ccccc1,9.76%
18,Cc1cc(C)cc(C(=O)NC(CC(N)=O)c2ccc(N3CCC(N4CCCCC4)CC3)c([N+](=O)[O-])c2)c1 (centres unmarked),12.3%
19,O=C(CSc1ccc(-c2cccnc2)nn1)Nc1ccccc1C(F)(F)F,13.6%
20,COCCn1c(N)c(N(Cc2ccccc2)C(=O)Cc2c(Cl)cccc2Cl)c(=O)[nH]c1=O,11.8%
